# Measured values published in the supplement of paper PMC3334620.
# The full ranking holds about 33,000 sequences; the median of “E-score (-0.5 to 0.5)” is about -0.016, and the highest 2% start at about 0.31. The list shows a part of the results.
# Biological target: Cst6 (UniProt P40535)
# Assay: PBM E-score (8-mer binding enrichment) (E-score (-0.5 to 0.5)); higher = stronger / more preferred TF binding; most listed sequences are background and not binding sites
# Details: protein concentration: 200 nM; construct: GST-DNA-binding domain
# In short: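 Masliner-normalised scans of fluorescent anti-GST signal were the basis for scoring. That signal came from GST-tagged yeast transcription factors applied at about 100-200 nM to double-stranded universal all-10-mer Agilent arrays on fresh or once-stripped slides. Each ungapped eight-base word, pooled with its reverse complement, received an E-score from the Universal PBM Analysis Suite.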
row,Sequence,PBM E-score
1,ATCGATGG,-0.00086
2,AAGGTTGC,-0.161
3,GTGCCAGA,-0.303
4,GATCCTCC,-0.376
5,ACTCTAAT,0.0593
6,GCAGCAAA,-0.195
7,ACTCCAAC,-0.151
8,CGGGGGGC,-0.265
9,GGGCCCAA,-0.141
10,CACGTGTC,-0.0316
11,GGGATTGA,-0.0874
12,AAATCTAA,0.107
13,AGTTTTGA,0.131
14,GTACGAAA,0.193
15,ACTCTAGG,-0.175
16,GAACTATA,0.0462
17,CCGAGAGA,-0.129
18,CGGACAGC,-0.0579
19,ACGCGCGA,0.119
20,AACTCATA,0.122
21,AGTTATAT,0.0697
22,AAAGAGCA,0.14
23,GTTGCTCA,-0.131
24,GAGTTTCC,-0.137
25,CGGGACAG,-0.11

row,Sequence,PBM E-score
1,AGCGCCAA,-0.102
2,GTTACCAA,0.0213
3,ACAGAGTC,-0.00468
4,ACTCACCT,-0.25
5,AGTATTAG,0.0444
6,AGCAACCA,-0.0285
7,CGGTGACC,0.115
8,AAATCGGC,0.0993
9,AAAAACCT,0.0828
10,CTGCCCGA,-0.14
11,AAAGGGTA,0.0854
12,AAGCGCCC,-0.186
13,TCAAATCA,0.176
14,CGAGTCTA,-0.265
15,CAAGGGGA,-0.0838
16,GAACATTA,0.167
17,ATTGCCTG,0.152
18,AGGGCCTG,-0.33
19,CCATCACA,-0.0245
20,AACTGATG,0.171
21,CACGGATG,-0.0168
22,TAGACTCA,-0.116
23,ACTCGGTC,-0.0694
24,GCGCAAGC,-0.094
25,ACGCTTAA,0.00879

row,Sequence,PBM E-score
1,ACACCAGC,-0.21
2,AACTCGCG,0.106
3,CTAATACC,-0.0924
4,ATTAGTTG,0.227
5,GCCTACTA,-0.00805
6,ACTAGTCC,-0.0722
7,GGGTAAGA,-0.108
8,TACCATCA,-0.0867
9,AGGGGACC,-0.329
10,CGCTTTGA,-0.0317
11,ATAATAAA,0.325
12,CGGTAAAC,-0.0192
13,AAGGTGGA,-0.139
14,AATGGCGC,0.016
15,ATCCTGAA,0.241
16,AGACATCG,-0.109
17,CGATTACA,0.13
18,ATGCCAAA,5e-05
19,CGACGTAA,0.451
20,GTCCCCGA,-0.292
21,CGACTCAA,-0.0831
22,ACCGGTAT,-0.217
23,CACAGCAA,0.234
24,ACTGCTAT,-0.0957
25,ACGTAGCT,0.19

row,Sequence,PBM E-score
1,GCAGCGCC,0.0306
2,CGGTGTCC,-0.257
3,ACTTTTTA,0.22
4,TGCCCTAA,-0.23
5,AAGATAAC,0.088
6,ATCGTAAA,0.172
7,GGCGTGTA,-0.00998
8,CTGGGTGA,0.0385
9,GCAACGCA,-0.216
10,GACATTGC,0.0623
11,ATATTTAA,0.355
12,ATGGTCCC,-0.121
13,CGGTACTC,-0.26
14,TCACCCGA,0.173
15,AAGAGCGG,0.0498
16,AGAGCAAT,-0.24
17,CACCTTTC,-0.139
18,AGCTGATA,0.118
19,AAAAAGAC,0.124
20,TCAGACGA,0.0699
21,CTAAGTAC,0.0904
22,AAGAGGAC,-0.249
23,CACATCAC,0.217
24,GCATAAAC,0.205
25,CACTAAGA,0.024

row,Sequence,PBM E-score
1,CGGGCCAA,-0.26
2,ATCCTGTC,0.119
3,ATAGCTCA,0.0523
4,AACATAGT,0.148
5,TGAAGCAA,-0.112
6,CCTGACTA,0.0718
7,ATAATCTC,0.166
8,GTTTGTCA,0.184
9,ATGCCTAC,-0.21
10,AGAATTAG,0.0556
11,ATCGTTAG,0.0972
12,AATCGAGA,-0.00458
13,AACCTGCT,-0.108
14,CCGCGCTC,-0.0887
15,CATTTACG,0.178
16,GGTCTTTA,-0.0126
17,ATGCGAAC,0.0217
18,ATGCGTTA,0.0442
19,CGTAGTAG,0.0995
20,ATACGGAG,0.00023
21,ATTTCGAG,0.0911
22,AATAGCAA,0.156
23,GAATCGCA,-0.237
24,CGTAGCGC,-0.144
25,GCTTCTTA,0.124

row,Sequence,PBM E-score
1,ACAAGACA,0.164
2,ACCGATAC,-0.0522
3,AGGGGCAG,-0.284
4,AAAAGCAA,0.168
5,ATCCCGAC,-0.078
6,ATTGGTAG,0.0186
7,GCCGTAGA,0.187
8,GGTAAGTA,0.077
9,AAGTCACG,0.0378
10,ATAATCCC,-0.053
11,CAAAATCC,0.192
12,ATAACCAA,0.213
13,AGCCACAA,-0.0333
14,CAGTTTAC,0.0349
15,AGTTTAGC,-0.0767
16,AATGCACG,0.0682
17,GACCTCGC,-0.0281
18,GAAGACAC,0.0869
19,CCGATGGA,-0.168
20,CGTTTAAA,0.187
21,AGAGTCGG,-0.0891
22,TCTACGCA,0.193
23,GAACTCGA,-0.00239
24,CACCAATG,-0.013
25,AGAAAAGA,0.112

row,Sequence,PBM E-score
1,CGAAGTTC,0.00463
2,AACTTGCC,-0.017
3,AACCCGTG,-0.209
4,TCTAAGCA,0.112
5,AATAGTGG,-0.149
6,AAAAATCT,0.175
7,GCAACCGA,-0.185
8,GGATGTGA,-0.0834
9,CGGTCGGC,-0.374
10,AGAGTTAA,0.0356
11,GAACCCGC,-0.304
12,AACGAGGA,-0.0303
13,GGAATTCC,-0.17
14,AACTATAG,-0.171
15,GGTGCACC,-0.13
16,CAGAATCA,0.137
17,CTCGACCA,-0.258
18,CCATGCGC,-0.195
19,AATTGGAC,-0.0118
20,ACGCAGTC,-0.165
21,GGCTACGA,0.0593
22,AGGACCCA,-0.348
23,CATCATCC,0.345
24,AATGTACA,0.152
25,CCTAGTAA,-0.194

row,Sequence,PBM E-score
1,ATTGCTCG,-0.157
2,CCGTCTAC,0.0417
3,CTTTCAAA,0.168
4,CACGCCTC,-0.0843
5,CCGAGGCA,-0.00896
6,AAACGGAT,0.222
7,GCCGAATA,0.064
8,GCACTTAA,0.143
9,ACCTGACT,-0.0496
10,GTCATAGA,0.411
11,CCGTGAAG,-0.216
12,ATTGGTGG,0.0879
13,ACGTACAT,0.289
14,CTTAATCC,-0.201
15,CATCGGTA,-0.0604
16,GCAGTCCC,-0.297
17,GGGGTGAA,-0.178
18,GTTCTTAA,0.0411
19,CTTTCTGC,0.0175
20,CCGGTCCA,-0.363
21,AGCTTAGG,-0.105
22,ACCTAGAC,-0.163
23,CAGGTCCG,-0.291
24,AGTAGGTC,-0.102
25,AGGTCCCA,-0.0716

row,Sequence,PBM E-score
1,CCAGGTGC,-0.0722
2,CGGGGGAA,-0.255
3,AGTAGGAA,-0.0518
4,CACGTTTA,0.272
5,CTCACCTA,0.00557
6,GGTGTGCA,-0.202
7,TACTCCTA,-0.0124
8,GTGAACCA,-0.0301
9,CTAGTTCC,0.0382
10,CTCCAAAC,-0.0568
11,AATTGTAG,0.131
12,CCGCGAAG,-0.215
13,AAAAGCGG,-0.0308
14,CGACGCCA,0.00886
15,AGTGTCCA,0.0974
16,ACCTCGAT,-0.149
17,AAGACAGG,-0.0516
18,GAGAGTCC,-0.321
19,CTTTATGA,0.13
